{"source": "paper PMC6919601", "about": "“Identification of Plasmodium dipeptidyl aminopeptidase allosteric inhibitors by high throughput screening” (PLoS ONE, 2019)", "note": "Out of some 110,000 compounds screened, about 230 (0.21%) showed an effect of 50% or more. This is one part of the list.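 Note: 30 min substrate incubation versus DMSO and 10 µM JCP410 controls.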", "data": [{"target": "DPAP1 (Plasmodium falciparum, UniProt Q8IIJ9)", "sequence (Q8IIJ9 whole entry, looked up)": "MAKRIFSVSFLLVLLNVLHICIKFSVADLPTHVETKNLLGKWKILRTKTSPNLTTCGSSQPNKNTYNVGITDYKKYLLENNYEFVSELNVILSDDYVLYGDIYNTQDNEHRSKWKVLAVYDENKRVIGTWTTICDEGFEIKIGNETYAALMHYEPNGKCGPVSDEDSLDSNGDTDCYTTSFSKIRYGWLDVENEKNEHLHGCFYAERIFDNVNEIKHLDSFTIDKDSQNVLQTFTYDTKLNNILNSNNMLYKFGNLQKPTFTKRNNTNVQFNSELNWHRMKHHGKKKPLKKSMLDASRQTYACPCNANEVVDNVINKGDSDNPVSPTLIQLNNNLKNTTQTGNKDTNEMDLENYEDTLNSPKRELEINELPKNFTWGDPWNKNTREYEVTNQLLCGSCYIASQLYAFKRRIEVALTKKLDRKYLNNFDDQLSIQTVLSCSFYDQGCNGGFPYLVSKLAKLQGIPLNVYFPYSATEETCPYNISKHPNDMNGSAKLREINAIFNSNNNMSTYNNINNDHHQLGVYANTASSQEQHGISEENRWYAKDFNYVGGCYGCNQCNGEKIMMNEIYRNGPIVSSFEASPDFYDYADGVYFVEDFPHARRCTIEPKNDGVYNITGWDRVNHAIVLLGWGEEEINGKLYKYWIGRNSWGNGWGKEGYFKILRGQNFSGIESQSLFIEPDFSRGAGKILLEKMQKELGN", "assay": "primary screen, percent inhibition; read by cleavage of a fluorogenic dipeptide substrate; higher = more effect of the substance", "parameters": "species or system P. falciparum D10 trophozoite lysates; single well", "units": {"% Inhibition @ 10 uM": "%"}, "values": [{"smiles": "Cc1ccc(-c2nc(-c3ccccn3)no2)cc1", "% Inhibition @ 10 uM": 1.52}, {"smiles": "O=C(NCc1ccncc1)c1ccc(Cl)c(Cl)c1", "% Inhibition @ 10 uM": 1.88}, {"smiles": "CC(=O)c1ccc(N2CCN(C(=O)/C(=C/c3cccs3)NC(=O)c3ccccc3)CC2)cc1", "% Inhibition @ 10 uM": 2.44}, {"smiles": "Cc1ccc(NC(=O)COc2cccc(C(F)(F)F)c2)cc1", "% Inhibition @ 10 uM": 0.992}, {"smiles": "Cc1ccc(-c2ccc(S(=O)(=O)Nc3cccnc3)cc2)cc1", "% Inhibition @ 10 uM": -0.088}, {"smiles": "CCCCNC(=O)Cn1c(=O)cc(C)c2c(C)nn(-c3cccc(F)c3)c21", "% Inhibition @ 10 uM": -0.12}, {"smiles": "Cc1ccccc1OCC(=O)Nc1cccc(N)c1", "% Inhibition @ 10 uM": -3.04}, {"smiles": "CC1CCCCN1Cc1nc2c(c(=O)n(C)c(=O)n2C)n1CCc1ccccc1", "note": "(stereo not shown)", "% Inhibition @ 10 uM": 2}, {"smiles": "CC(C)(C)c1ccc(C(=O)N(Cc2cccc(F)c2)C2CCS(=O)(=O)C2)cc1", "note": "(stereo not shown)", "% Inhibition @ 10 uM": -4.95}, {"smiles": "C/N=C1/S/C(=C\\c2ccc(-c3cc(Cl)ccc3OC)o2)C(=O)N1C", "% Inhibition @ 10 uM": 6.65}, {"smiles": "CC(C)(C)c1cc(CCC#N)cc(C(C)(C)C)c1O", "% Inhibition @ 10 uM": -5.51}, {"smiles": "O=C(CCS(=O)(=O)c1ccccc1)NCc1ccc2c(c1)OCO2", "% Inhibition @ 10 uM": -3.93}, {"smiles": "CC(C(=O)NCCc1ccc(Cl)cc1)n1c2ccccc2c2cnnc(O)c21", "note": "(stereo not shown)", "% Inhibition @ 10 uM": -9.53}, {"smiles": "O=C(CN(CCc1ccccc1)S(=O)(=O)c1ccc(Cl)cc1)N1CCN(c2ccccc2)CC1", "% Inhibition @ 10 uM": -3.39}, {"smiles": "CC(C)CC(NC(=O)c1cccc(NC(=O)N2CCN(Cc3ccccc3)CC2)c1)C(=O)NCC#N", "note": "(stereo not shown)", "% Inhibition @ 10 uM": 7.72}, {"smiles": "O=c1cc(CSc2nc[nH]n2)nc2sccn12", "% Inhibition @ 10 uM": -3.76}, {"smiles": "O=c1c(CN2CCN(c3ccc(F)cc3)CC2)coc2c(Cl)cc(Cl)cc12", "% Inhibition @ 10 uM": -5.65}, {"smiles": "CCOC(=O)C1CCCN(Cc2ccc(O)cc2)C1", "note": "(stereo not shown)", "% Inhibition @ 10 uM": -1.86}, {"smiles": "CC(C)C[C@H](NC(=O)c1cccc(-c2ccc(S(C)(=O)=O)cc2)c1)C(=O)NCC#N", "% Inhibition @ 10 uM": 5.76}, {"smiles": "CS(=O)(=O)N(CC(=O)N1CCc2ccccc2C1)c1cccc(F)c1", "% Inhibition @ 10 uM": -0.641}, {"smiles": "COc1ccccc1[N+]1=C2CCCCN2C(O)(c2ccc(C)cc2C)C1", "note": "(stereo not shown)", "% Inhibition @ 10 uM": 1.75}, {"smiles": "O=C(NCCN1CCCCCC1)c1ccc(CS(=O)(=O)c2c(Cl)cccc2Cl)o1", "% Inhibition @ 10 uM": -2.85}, {"smiles": "CCOC(=O)C1CCN(Cc2cccc3ccccc23)CC1", "% Inhibition @ 10 uM": -0.294}, {"smiles": "CC1CCN(CC(=O)n2c3c(c4ccccc42)CCCC3)CC1", "% Inhibition @ 10 uM": 6.22}, {"smiles": "CC1CCN(S(=O)(=O)c2ccc(NC(=O)COc3ccc4ccccc4c3)cc2)CC1", "% Inhibition @ 10 uM": -5.96}, {"smiles": "CCOC(=O)CSc1nc2ccc(N)cc2s1", "% Inhibition @ 10 uM": -1.2}, {"smiles": "COC(=O)c1c(NC(=O)/C(C#N)=C/c2ccccc2)sc2c1CCCC2", "% Inhibition @ 10 uM": -2.87}, {"smiles": "CCOc1ccc(NC(=O)C(C)N2C(=O)C3C4C=CC(C4)C3C2=O)cc1", "note": "(stereo not shown)", "% Inhibition @ 10 uM": -3.23}, {"smiles": "Cc1nc2ncnn2c(C)c1CCC(=O)N1CC(C)CC(C)C1", "note": "(stereo not shown)", "% Inhibition @ 10 uM": -10.1}, {"smiles": "O=C(Nc1ccc(S(=O)(=O)N2CCCCC2)cc1)c1ccc(F)cc1", "% Inhibition @ 10 uM": 5.03}, {"smiles": "CC(NS(=O)(=O)c1ccc2oc(=O)c3ncn(C)c3c2c1)c1ccccc1", "note": "(stereo not shown)", "% Inhibition @ 10 uM": -0.0709}, {"smiles": "CCNC(=O)c1cccnc1Nc1cccc(C(F)(F)F)c1", "% Inhibition @ 10 uM": 4.83}, {"smiles": "O=C1CC(N2CCCC2)C(=O)N1c1ccc(Cl)c(Cl)c1", "note": "(stereo not shown)", "% Inhibition @ 10 uM": -5.31}, {"smiles": "O=S1(=O)CC(c2ccccc2)CS(=O)(=O)C1CCN1CCCCC1", "note": "(stereo not shown)", "% Inhibition @ 10 uM": -5.28}, {"smiles": "O=C(Cn1c2ccccc2c2cnnc(O)c21)NCCN1CCOCC1", "% Inhibition @ 10 uM": 4.55}, {"smiles": "Cc1c(CN2CCOCC2)c(=O)n(-c2ccccc2)n1C", "% Inhibition @ 10 uM": 1.38}, {"smiles": "O=C(CCC(=O)n1ncc2ccc(Cl)cc21)NCc1ccco1", "% Inhibition @ 10 uM": 3.84}, {"smiles": "CCC(C)NC(=O)C1CCN(Cc2nc(-c3ccccc3C)oc2C)CC1", "note": "(stereo not shown)", "% Inhibition @ 10 uM": 0.689}, {"smiles": "O=C1NC(=O)N(Cc2ccccc2)C(=O)/C1=C\\c1ccccc1", "% Inhibition @ 10 uM": 0.0345}, {"smiles": "Cc1cccc(C)c1-c1ccc(C(=O)N[C@@H](CC(C)C)C(=O)NCC#N)cc1", "% Inhibition @ 10 uM": -1.41}, {"smiles": "Cc1cc(C)c(S(=O)(=O)Nc2ccc(O)cc2)cc1C", "% Inhibition @ 10 uM": -9.13}, {"smiles": "Cc1ccc(OC(C)C(=O)Nc2ccc(C)cc2C)cc1", "note": "(stereo not shown)", "% Inhibition @ 10 uM": -4.02}, {"smiles": "COc1ccc(-c2c(C)nn3c(O)c(Cl)c(C)nc23)cc1", "% Inhibition @ 10 uM": -3.44}, {"smiles": "Cc1cccc(CCNC(=O)c2nnc(Cc3ccc(F)cc3)o2)c1", "% Inhibition @ 10 uM": -1.59}, {"smiles": "Cc1ccc(NC(=O)Cc2ccc(F)cc2F)cc1", "% Inhibition @ 10 uM": -3.94}, {"smiles": "C=Cc1ccc(Cn2c(C)c(CNCc3cccc(Cl)c3)c(C(=O)O)c2C)cc1", "% Inhibition @ 10 uM": 4.53}, {"smiles": "COc1ccc(CCc2nc(-c3ccc(C(F)(F)F)cc3)no2)cc1", "% Inhibition @ 10 uM": -2.4}, {"smiles": "COc1ccc(S(=O)(=O)N2CC(C)CC(C)C2)cc1", "note": "(stereo not shown)", "% Inhibition @ 10 uM": -2.54}, {"smiles": "CCn1c(SCc2ccc(Cl)cc2Cl)nc2c1c(=O)n(C)c(=O)n2C", "% Inhibition @ 10 uM": 12}, {"smiles": "CC(NC(=O)Cc1ccccc1)c1cc2c(cc1Br)OCCCO2", "note": "(stereo not shown)", "% Inhibition @ 10 uM": 3.8}, {"smiles": "Cn1cccc1CNCCc1ccc(S(N)(=O)=O)cc1", "% Inhibition @ 10 uM": -0.183}, {"smiles": "CC1=C(C(=O)N2CCCCC2)C(c2ccccc2OC(F)F)n2c(nc3ccccc32)N1", "note": "(stereo not shown)", "% Inhibition @ 10 uM": -0.326}, {"smiles": "COc1ccccc1NC1=C(C(=O)c2ccccc2)N(C)S(=O)(=O)c2ccccc21", "% Inhibition @ 10 uM": 5.49}, {"smiles": "CCOCCCNC(=O)c1cnc2ccc(S(=O)(=O)N3CCC4(CC3)OCCO4)cc2c1O", "% Inhibition @ 10 uM": -2.21}, {"smiles": "CCCC(=O)NS(=O)(=O)c1ccc(NC(=O)c2ccc(Cl)cc2)cc1", "% Inhibition @ 10 uM": 0.909}, {"smiles": "COc1ccc2c(c1)C(=O)N(Cc1ccccc1)C(=O)/C2=C/N1CCOCC1", "% Inhibition @ 10 uM": -1.79}, {"smiles": "Cc1nc2c(-c3ccccc3)c(C)nn2c(C)c1CC(=O)NCc1cccnc1", "% Inhibition @ 10 uM": -2.45}, {"smiles": "Cc1cccc(Nc2nc(-c3ccccn3)cs2)n1", "% Inhibition @ 10 uM": 1.74}, {"smiles": "O=C(O)C1CCCN1S(=O)(=O)c1ccc2nc(O)c(O)nc2c1", "note": "(stereo not shown)", "% Inhibition @ 10 uM": -9.6}, {"smiles": "CCn1ncc(C2=NOC(C(=O)NCc3ccc(F)cc3)C2)c1C", "note": "(stereo not shown)", "% Inhibition @ 10 uM": -4.85}, {"smiles": "Cc1ccccc1C(=O)c1cccn1CC(=O)O", "% Inhibition @ 10 uM": 1.43}, {"smiles": "CNC(=O)CCCN1C(=O)c2ccccc2Sc2ncccc21", "% Inhibition @ 10 uM": -5.68}, {"smiles": "CCCN1CNC(=S)N(CCc2ccccc2)C1", "% Inhibition @ 10 uM": -5.62}, {"smiles": "CCc1ccc(C(C)NC(=O)Cn2cnc3c(=O)n(C)c(=O)n(C)c32)cc1", "note": "(stereo not shown)", "% Inhibition @ 10 uM": 1.88}]}]}
